{"source": "the supplement of paper PMC11383711", "binders": {"B1": {"name": "31.a.55 (protein)", "chain 1": "EVQLLESGGGLVKPGGSLRLSCEASEFTFSSHAMSWVRQAPGKGLEWVSAISGNGGSTYYADSVKGRFTISRDNSKNTLYLQMNSLRAEDTALYYCTKDRSPPVFDLMPGYYSSFYYMDVWGKGTTVTVSS", "chain 2": "EIVMTQSPATLSVSPGERATLSCRASQSVRGNLAWYQQKPGQAPRLLIYGASTRATDIPARFSGSGSGTEFTLTISSLQSEDFAVYYCQQYNHWLRTFGQGTKLEIK"}, "B2": {"name": "051-09-5D01 (protein)", "chain 1": "QVQLVESGGGVVQPGRSLRLSCAASGFAFSNYAMHWVRQAPGKGLESVAVVLYDGNSEYYADSVKGRFTISRDTSKNLVYLQMNSLRPEDTAVYYCVKDSEYADYDPVYWGQGTLVTVSS", "chain 2": "DIQMTQSPSTLSASVGDRVTITCRASHSVSTWLAWYQQKPGKAPKPLIYKASNLESGVPSRFSGSGSGTEFTLTISSLQPDDFATYYCKQYNRYLWTFGQGTKVEIK"}, "B3": {"name": "01.ad.01 (protein)", "chain 1": "EVQLAESGGGLVQPGGSLRLSCAASGFSFHSYAMNWVRQAPGKGLEWVSGTGGSGLSTYYADSVKGRFTISRDNSKNTLYLQMNRLRAEDTAVYYCAKSPSWDKNFYDSGSYYFYFDYWGQGNLVTVSS", "chain 2": "EIVLTQSPVSLSLSPGERAALSCRASQSLSSRFLAWYQQKPGQAPRLLIHGASSRATGIPDRFSGSGSGTDFTLTISRLEPEDFAVYYCQQYGSAPLTFGGGTKVEMK"}, "B4": {"name": "FluA-152 (protein)", "chain 1": "QVTLRESGPALVKPTQTLTLTCTFSGFSLSTSGMCVSWIRQPPGKALEWLARIDWGDDKYYSTSLKTRLTISKDTSKNQVVLRMINMDPVDTATYYCARTHAERLYTSDYYYYAMDVWGQGTTVTVSS", "chain 2": "DIQMTQSPSSLSASVGDRVTITCRASQSISNYLNWYQQKPGKAPKLLIYVASNLQTGVPSRFSGSGSGTDFSLTISSLQPEDFATYYCQQTYSSLTFGQGTRLAIK"}, "B5": {"name": "antibody 2E03 (protein)", "chain 1": "VQLVESGGGLVQPGRSLRLSCAASGFSFYDYAMSWVRQAPGRGLEWVGFIRSYTYGGTTEYAASVRGRFTISRDDSNNIAYLQMNSLKTEDTAVYYCTNLGSSWLNAGLYYYYDMDVWGQGTTVTVSS", "chain 2": "DIQMTQSPSSLSASVGDRVTITCRASQSIRRYLNWFQQRPGKAPKLLIYEVSNLPTGVPSRFSGSGSGTDFTLTISGLRPEDFATYFCQQNFRTFGPGTKVDIK"}, "B6": {"name": "antibody 4D02 (protein)", "chain 1": "VQLVESGGGLIQPGGSLRLSCAASGFTVSSNYVSWVRQAPGRGLEWVSIIYSDGRTYYADSVKGRFNISRDNSKNTLYLQMNSLRAEDTAVYYCARDFYGDYYNNGMDVWGQGTTVTVSS", "chain 2": "DIQMTQSPSSLSASVGDRVTITCRAGQSISNYLNWYQQKPGRAPKLLISGASSLQAGVPSRFSGSGSGTDFTLTISSLQREDFATYYCQQSYSIPQTFGQGTKVEIK"}}, "note": "The other results are listed elsewhere or left out. Binding of human antibodies (heavy:light variable regions, tested as scFv in one mRNA-display pool) to influenza hemagglutinin, with or without the stem antibody CR9114 bound first. Score = (mean enrichment − median) / interquartile range of that screen; higher = more enriched, 0 = typical non-binder. Active = above the paper's cut-off per screen: stems 28; unblocked H1 Solomon Islands 5, H1 Michigan 3, H3 5, H5 19, H7 2.85, both B 5; blocked 9, 7, H5 10, H7 10, B Phuket 10, B Lee 11.5. Scores are scaled within each screen and are no affinities; replicates correlate at about 0.6 to 0.9, and antibodies rare in the pool are noisier."}
{"target": "Influenza A H1N1 A/Michigan/45/2015 hemagglutinin ectodomain", "assay": "mRNA display binding score; higher = more enriched on the antigen", "details": "antigen blocked with: 2 µM CR9114 IgG", "protocol": "(§1)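 A pool of natively paired antibodies, displayed as scFv on mRNA, was selected once on antigen-coated beads and sequenced before and after; two replicates.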"}
{"binder": "B1", "mRNA display binding score": "inactive: -0.19"}
{"binder": "B2", "mRNA display binding score": "active: 42.7"}
{"binder": "B3", "mRNA display binding score": "inactive: 0.314"}
{"binder": "B4", "mRNA display binding score": "inactive: 0.58"}
{"binder": "B5", "mRNA display binding score": "inactive: 0.294"}
{"binder": "B6", "mRNA display binding score": "inactive: 0.308"}
{"target": "Influenza A H1N1 A/Michigan/45/2015 hemagglutinin ectodomain", "assay": "mRNA display binding score; higher = more enriched on the antigen", "details": "antigen blocked with: nothing", "protocol": "as §1"}
{"binder": "B1", "mRNA display binding score": "active: 5.79"}
{"binder": "B2", "mRNA display binding score": "inactive: 0.285"}
{"binder": "B3", "mRNA display binding score": "inactive: -0.34"}
{"binder": "B4", "mRNA display binding score": "inactive: 0.316"}
{"binder": "B5", "mRNA display binding score": "inactive: 0.288"}
{"binder": "B6", "mRNA display binding score": "inactive: -0.313"}
{"target": "Influenza A H1N1 A/Solomon Islands/3/2006 hemagglutinin ectodomain", "assay": "mRNA display binding score; higher = more enriched on the antigen", "details": "antigen blocked with: 2 µM CR9114 IgG", "protocol": "as §1"}
{"binder": "B1", "mRNA display binding score": "inactive: 2.32"}
{"binder": "B2", "mRNA display binding score": "inactive: 1.83"}
{"binder": "B3", "mRNA display binding score": "inactive: -0.644"}
{"binder": "B4", "mRNA display binding score": "inactive: 0.447"}
{"binder": "B5", "mRNA display binding score": "inactive: 1"}
{"binder": "B6", "mRNA display binding score": "inactive: 0.695"}
{"target": "Influenza A H1N1 A/Solomon Islands/3/2006 hemagglutinin ectodomain", "assay": "mRNA display binding score; higher = more enriched on the antigen", "details": "antigen blocked with: nothing", "protocol": "as §1"}
{"binder": "B1", "mRNA display binding score": "active: 8.95"}
{"binder": "B2", "mRNA display binding score": "inactive: 0.906"}
{"binder": "B3", "mRNA display binding score": "inactive: 1.19"}
{"binder": "B4", "mRNA display binding score": "inactive: 1.57"}
{"binder": "B5", "mRNA display binding score": "inactive: -0.144"}
{"binder": "B6", "mRNA display binding score": "inactive: -0.559"}
{"target": "Influenza A H3N2 A/Singapore/INFIMH-16-0019/2016 hemagglutinin ectodomain", "assay": "mRNA display binding score; higher = more enriched on the antigen", "details": "antigen blocked with: nothing", "protocol": "as §1"}
{"binder": "B1", "mRNA display binding score": "active: 299"}
{"binder": "B2", "mRNA display binding score": "inactive: -0.366"}
{"binder": "B3", "mRNA display binding score": "active: 42.6"}
{"binder": "B4", "mRNA display binding score": "inactive: 1.59"}
{"binder": "B5", "mRNA display binding score": "inactive: -0.466"}
{"binder": "B6", "mRNA display binding score": "inactive: -0.373"}
{"target": "Influenza A H5N1 A/Qinghai/1A/2005 hemagglutinin ectodomain", "assay": "mRNA display binding score; higher = more enriched on the antigen", "details": "antigen blocked with: 2 µM CR9114 IgG", "protocol": "as §1"}
{"binder": "B1", "mRNA display binding score": "inactive: -0.0549"}
{"binder": "B2", "mRNA display binding score": "inactive: 0.503"}
{"binder": "B3", "mRNA display binding score": "inactive: -0.712"}
{"binder": "B4", "mRNA display binding score": "inactive: 0.683"}
{"binder": "B5", "mRNA display binding score": "inactive: 5.81"}
{"binder": "B6", "mRNA display binding score": "inactive: -0.321"}
{"target": "Influenza A H5N1 A/Qinghai/1A/2005 hemagglutinin ectodomain", "assay": "mRNA display binding score; higher = more enriched on the antigen", "details": "antigen blocked with: nothing", "protocol": "as §1"}
{"binder": "B1", "mRNA display binding score": "inactive: 0.516"}
{"binder": "B2", "mRNA display binding score": "inactive: 0.0991"}
{"binder": "B3", "mRNA display binding score": "inactive: 0.189"}
{"binder": "B4", "mRNA display binding score": "inactive: 0.781"}
{"binder": "B5", "mRNA display binding score": "inactive: 0.546"}
{"binder": "B6", "mRNA display binding score": "inactive: -0.202"}
{"target": "Influenza A H7N9 A/Shanghai/2/2013 hemagglutinin ectodomain", "assay": "mRNA display binding score; higher = more enriched on the antigen", "details": "antigen blocked with: 2 µM CR9114 IgG", "protocol": "as §1"}
{"binder": "B1", "mRNA display binding score": "inactive: -0.781"}
{"binder": "B2", "mRNA display binding score": "inactive: -0.423"}
{"binder": "B3", "mRNA display binding score": "inactive: 1.2"}
{"binder": "B4", "mRNA display binding score": "inactive: 0.72"}
{"binder": "B5", "mRNA display binding score": "inactive: 0.128"}
{"binder": "B6", "mRNA display binding score": "inactive: -0.284"}
{"target": "Influenza A H7N9 A/Shanghai/2/2013 hemagglutinin ectodomain", "assay": "mRNA display binding score; higher = more enriched on the antigen", "details": "antigen blocked with: nothing", "protocol": "as §1"}
{"binder": "B1", "mRNA display binding score": "inactive: 1.3"}
{"binder": "B2", "mRNA display binding score": "inactive: -0.327"}
{"binder": "B3", "mRNA display binding score": "inactive: -0.572"}
{"binder": "B4", "mRNA display binding score": "inactive: 1.31"}
{"binder": "B5", "mRNA display binding score": "inactive: 0.826"}
{"binder": "B6", "mRNA display binding score": "inactive: -0.283"}
{"target": "Influenza B/Lee/1940 hemagglutinin ectodomain", "assay": "mRNA display binding score; higher = more enriched on the antigen", "details": "antigen blocked with: 2 µM CR9114 IgG", "protocol": "as §1"}
{"binder": "B1", "mRNA display binding score": "inactive: -1.27"}
{"binder": "B2", "mRNA display binding score": "inactive: -0.646"}
{"binder": "B3", "mRNA display binding score": "inactive: -0.125"}
{"binder": "B4", "mRNA display binding score": "inactive: 0.464"}
{"binder": "B5", "mRNA display binding score": "active: 24.7"}
{"binder": "B6", "mRNA display binding score": "inactive: -0.174"}
{"target": "Influenza B/Lee/1940 hemagglutinin ectodomain", "assay": "mRNA display binding score; higher = more enriched on the antigen", "details": "antigen blocked with: nothing", "protocol": "as §1"}
{"binder": "B1", "mRNA display binding score": "inactive: 0.711"}
{"binder": "B2", "mRNA display binding score": "inactive: 0.69"}
{"binder": "B3", "mRNA display binding score": "inactive: 0.251"}
{"binder": "B4", "mRNA display binding score": "inactive: -0.109"}
{"binder": "B5", "mRNA display binding score": "active: 11.5"}
{"binder": "B6", "mRNA display binding score": "inactive: 3.47"}
{"target": "Influenza B/Phuket/3073/2013 hemagglutinin ectodomain", "assay": "mRNA display binding score; higher = more enriched on the antigen", "details": "antigen blocked with: 2 µM CR9114 IgG", "protocol": "as §1"}
{"binder": "B1", "mRNA display binding score": "inactive: 0.681"}
{"binder": "B2", "mRNA display binding score": "inactive: -0.328"}
{"binder": "B3", "mRNA display binding score": "inactive: -0.0741"}
{"binder": "B4", "mRNA display binding score": "inactive: 0.874"}
{"binder": "B5", "mRNA display binding score": "active: 50"}
{"binder": "B6", "mRNA display binding score": "inactive: 0.252"}
{"target": "Influenza B/Phuket/3073/2013 hemagglutinin ectodomain", "assay": "mRNA display binding score; higher = more enriched on the antigen", "details": "antigen blocked with: nothing", "protocol": "as §1"}
{"binder": "B1", "mRNA display binding score": "inactive: 0.641"}
{"binder": "B2", "mRNA display binding score": "inactive: -0.261"}
{"binder": "B3", "mRNA display binding score": "inactive: -0.235"}
{"binder": "B4", "mRNA display binding score": "inactive: 0.362"}
{"binder": "B5", "mRNA display binding score": "active: 5.64"}
{"binder": "B6", "mRNA display binding score": "active: 5.37"}
